# About 14,000 (4.5%) of roughly 310,000 compounds showed an effect of 50% or more. Effects have a minus sign here. The list shows a part of the results.
# Target: human ether-à-go-go-related gene (hERG) potassium channel (human, UniProt Q12809)
# Test: primary screen, population patch clamp on CHO cells stably expressing hERG
# 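Further: peak tail current of the secondary pulse compared with the same well before compound.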
# Sequence of human ether-à-go-go-related gene (hERG) potassium channel (Q12809 whole entry, looked up): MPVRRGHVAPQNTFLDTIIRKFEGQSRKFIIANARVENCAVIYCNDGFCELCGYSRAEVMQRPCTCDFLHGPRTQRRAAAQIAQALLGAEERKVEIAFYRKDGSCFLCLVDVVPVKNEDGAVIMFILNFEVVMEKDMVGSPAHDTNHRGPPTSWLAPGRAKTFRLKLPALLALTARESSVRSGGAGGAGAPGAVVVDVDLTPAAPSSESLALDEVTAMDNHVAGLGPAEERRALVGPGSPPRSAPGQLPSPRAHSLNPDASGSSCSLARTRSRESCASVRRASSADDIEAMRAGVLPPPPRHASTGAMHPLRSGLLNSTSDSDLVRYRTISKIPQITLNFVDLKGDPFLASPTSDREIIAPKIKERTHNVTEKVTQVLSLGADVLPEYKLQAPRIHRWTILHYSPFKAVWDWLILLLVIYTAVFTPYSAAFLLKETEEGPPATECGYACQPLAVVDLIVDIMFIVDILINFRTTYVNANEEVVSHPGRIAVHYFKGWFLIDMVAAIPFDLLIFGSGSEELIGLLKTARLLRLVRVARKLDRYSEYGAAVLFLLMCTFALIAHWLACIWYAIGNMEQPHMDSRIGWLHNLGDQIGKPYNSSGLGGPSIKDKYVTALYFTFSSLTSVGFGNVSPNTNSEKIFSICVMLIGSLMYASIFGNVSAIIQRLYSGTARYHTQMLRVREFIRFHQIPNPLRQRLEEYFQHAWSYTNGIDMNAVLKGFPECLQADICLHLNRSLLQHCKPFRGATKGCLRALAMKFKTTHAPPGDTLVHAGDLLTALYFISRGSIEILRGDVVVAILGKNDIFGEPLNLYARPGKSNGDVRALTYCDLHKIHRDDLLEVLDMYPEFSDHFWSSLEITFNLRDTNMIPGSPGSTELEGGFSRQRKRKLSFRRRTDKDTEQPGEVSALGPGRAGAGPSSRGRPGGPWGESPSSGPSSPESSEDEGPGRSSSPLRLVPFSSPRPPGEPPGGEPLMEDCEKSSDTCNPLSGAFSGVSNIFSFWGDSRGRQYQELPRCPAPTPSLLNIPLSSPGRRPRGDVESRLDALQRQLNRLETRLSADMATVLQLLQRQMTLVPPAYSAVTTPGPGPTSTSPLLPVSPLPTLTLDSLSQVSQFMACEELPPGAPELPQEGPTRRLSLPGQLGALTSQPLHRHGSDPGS
row,SMILES,"hERG current change (%, negative = inhibition) at 10uM [%]"
1,CCCCCn1c(=O)c(C(=O)Nc2c(C)n(C)n(-c3ccccc3)c2=O)c(O)c2ccccc21,5.7
2,C=CCSc1nc(N(CC)CC)c2sccc2n1,-12.4
3,O=C(c1cccc(S(=O)(=O)N2CCOCC2)c1)N(Cc1ccc(F)cc1)Cc1ccco1,-88.4
4,O=C1CCCc2c1cc(C(=O)NCc1ccco1)c(=O)n2-c1ccc(Cl)cc1,-69.3
5,Cc1ccsc1CNC1CCCCC1,9.94
6,CN(C)CCNC(=O)c1onc(CSc2nc3ccccc3[nH]2)c1C(=O)NCCN(C)C,-0.951
7,CCCCC(=O)NC(=S)Nc1cc(C(=O)O)ccc1Cl,11.2
8,O=C(Nc1ccc2oc(-c3ccccc3)nc2c1)c1cccs1,6
9,Cc1noc(C)c1COc1ccccc1C(=O)NC1CCC(C)CC1 (centres unmarked),0.497
10,COc1ccc(C(=O)Cc2ccc3c(c2)OCO3)c(O)c1,-9.04
11,Cc1ccc(NC(=O)c2cnc(SCC(=O)c3ccccc3)n(C)c2=O)cc1,13.7
12,CCOc1ccc(/C=N/NC(=O)c2ccccc2C)cc1CN1CC2CC(C1)c1cccc(=O)n1C2 (centres unmarked),-26.8
13,CCCOc1ccc(/C(O)=C2/C(=O)C(=O)N(c3ccccn3)C2c2ccc(OC)cc2)cc1C (centres unmarked),22.7
14,C[N+](C)(C)CCOC(=O)CCC(=O)OCC[N+](C)(C)C.O.[Cl-],7.47
15,Cc1c(NC(=O)Nc2ccc(Cl)c(Cl)c2)c(=O)n(-c2ccccc2)n1C,-7.58
16,COc1ccc(-c2cc3c(=O)n(CC(=O)NCc4cccnc4)nc(C)n3n2)cc1,-3.95
17,O=C(NCCc1ccccc1)C1COc2ccccc2O1 (centres unmarked),1.55
18,Cc1ccccc1NC(=O)Nc1ccccc1Br,13.7
19,CC1CCN(C(=O)c2ccc(NC(=O)c3cccs3)cc2)CC1,-1.19

row,SMILES,"hERG current change (%, negative = inhibition) at 10uM [%]"
1,Cc1cc2nccc(-c3cccnc3)n2n1,4.69
2,CCC/C=N/NC(=O)c1cccc(Br)c1,0.11
3,CC(=O)NNc1cccc(Cl)n1,-9.49
4,O=S(=O)(NCCc1csc(-c2ccccc2)n1)c1cccnc1,8.48
5,COc1ccc(Cl)cc1S(=O)(=O)Nc1ncn[nH]1,12.9
6,CC1(C)CC(=O)c2cc(OCC(=O)NCCCN3CCN(c4ccc(F)cc4)CC3)ccc2O1,-72.9
7,O=C(O)c1ccccc1C(=O)N1N=C(c2ccccc2)CC1c1ccccc1O (centres unmarked),6.81
8,CC(=O)c1cc(-c2ccccc2)n(CCC(=O)NC2CCCCCC2)c1C,-11.7
9,CCOC(=O)C1=C(c2ccccc2)NC(=O)NC1c1cccc(OC)c1OC (centres unmarked),8.47
10,COc1ccc(Cl)cc1NC(=O)NC1CCCCC1,10.3
11,Cc1ccc(NS(=O)(=O)c2ccc(C(=O)NCc3ccccn3)cc2)cc1,18.8
12,C=CCOC(=O)C1=C(C)OC(N)=C(C#N)C1c1ccc(F)cc1 (centres unmarked),4.61
13,COc1ccc(C2/C(=C(/O)c3ccccc3)C(=O)C(=O)N2CCN2CCOCC2)c(OC)c1 (centres unmarked),-11
14,O=C(Nc1ccc(Cl)c(Cl)c1)Nc1nnc(CC2=CCCCC2)s1,24.6
15,Cn1nnc(NC(=O)c2cccc([N+](=O)[O-])c2)n1,0.388
16,O=C(Nc1ncc2c(n1)-c1ccccc1OC2)c1ccc(F)cc1,-19.1
17,COc1cccc(CNC(=O)c2ccccc2C(=O)NC(C)(C)C(=O)NCc2cccc(OC)c2)c1,-3.27
18,Cc1ccc(-n2ncc3c(=O)n(CC(=O)N4CCN(C(=O)c5ccco5)CC4)cnc32)cc1,-33.4
19,O=C(Cc1ccc(Cl)cc1)N1CCC2(CC1)NCCc1[nH]cnc12,7.89

row,SMILES,"hERG current change (%, negative = inhibition) at 10uM [%]"
1,O=C(O)CCn1cc(/C=C2/NC(=S)N(c3ccccc3)C2=O)c(-c2ccccc2)n1,17.3
2,CCC(=O)Oc1cccc(C(=O)Nc2cccc(NC(=O)c3ccco3)c2)c1,-1.06
3,C=C1CCN([C@@H](Cc2ccccc2)C(=O)NCc2ccc(Cl)cc2)S(=O)(=O)c2ccccc21,1.34
4,Cn1c(SCC(=O)NCCc2ccccc2)nnc1-c1ccncc1,7.6
5,Cc1nc(NC(=O)c2ccccc2)sc1-c1csc(N)n1,-5.17
6,FC(F)(F)c1cccc(NC(=S)NC(c2ccccc2)c2ccccc2)c1,4.53
7,Cn1ccnc1SCC(=O)Nc1cc(F)ccc1F,11.3
8,CC1=CC(=C(C#N)c2nc3ccccc3s2)C=C(C)N1c1ccc(F)cc1,3.76
9,CCOc1nc(Nc2ccccc2F)nc(OCC)n1,-9.55
10,Cc1onc(-c2ccccc2)c1C(=O)NC(=S)Nc1sc2c(c1C#N)CCCC2,26.3
11,CCC(=O)Nc1ccc(C(=O)CN2C(=O)NC3(CCCCCC3)C2=O)cc1,4.45
12,COc1ccc(C(=O)CC(=O)C(=O)Nc2cc(Cl)c(OC)cc2OC)cc1,3.85
13,Cc1cccc(N2CCN(S(=O)(=O)c3c(C)nc4scc(C)n4c3=O)CC2C)c1 (centres unmarked),-37
14,C=CCn1c(C)cc(C(=O)COC(=O)C2CC(=O)N(Cc3ccccc3)C2)c1C (centres unmarked),-18.8
15,CC(=O)NC(CCCNC(=S)NC1CCCCC1)C(=O)O (centres unmarked),29.1
16,Cn1c(=O)c(C(=O)CN2CCN(Cc3ccc4c(c3)OCO4)CC2)c(N)n(Cc2ccccc2)c1=O,-66.8
17,Nc1cc(OC(=O)c2cccs2)nn1S(=O)(=O)c1ccccc1,24.2
18,CCOC(=O)N1CCN(C(=O)CCNS(=O)(=O)c2ccc(C)c(C)c2)CC1,-4.15

# From paper PMC4336329 (PLoS ONE, 2015)
